Measurements as given in paper PMC4336329 (PLoS ONE, 2015).
Out of some 310,000 compounds screened, about 14,000 (4.5%) showed an effect of 50% or more. Effects have a minus sign here. Some of the results follow.

These compounds were tested against human ether-à-go-go-related gene (hERG) potassium channel (human, UniProt Q12809) (assay: primary screen, population patch clamp on CHO cells stably expressing hERG).
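Also: peak tail current of the secondary pulse compared with the same well before compound.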

Chain of human ether-à-go-go-related gene (hERG) potassium channel (Q12809 whole entry, looked up): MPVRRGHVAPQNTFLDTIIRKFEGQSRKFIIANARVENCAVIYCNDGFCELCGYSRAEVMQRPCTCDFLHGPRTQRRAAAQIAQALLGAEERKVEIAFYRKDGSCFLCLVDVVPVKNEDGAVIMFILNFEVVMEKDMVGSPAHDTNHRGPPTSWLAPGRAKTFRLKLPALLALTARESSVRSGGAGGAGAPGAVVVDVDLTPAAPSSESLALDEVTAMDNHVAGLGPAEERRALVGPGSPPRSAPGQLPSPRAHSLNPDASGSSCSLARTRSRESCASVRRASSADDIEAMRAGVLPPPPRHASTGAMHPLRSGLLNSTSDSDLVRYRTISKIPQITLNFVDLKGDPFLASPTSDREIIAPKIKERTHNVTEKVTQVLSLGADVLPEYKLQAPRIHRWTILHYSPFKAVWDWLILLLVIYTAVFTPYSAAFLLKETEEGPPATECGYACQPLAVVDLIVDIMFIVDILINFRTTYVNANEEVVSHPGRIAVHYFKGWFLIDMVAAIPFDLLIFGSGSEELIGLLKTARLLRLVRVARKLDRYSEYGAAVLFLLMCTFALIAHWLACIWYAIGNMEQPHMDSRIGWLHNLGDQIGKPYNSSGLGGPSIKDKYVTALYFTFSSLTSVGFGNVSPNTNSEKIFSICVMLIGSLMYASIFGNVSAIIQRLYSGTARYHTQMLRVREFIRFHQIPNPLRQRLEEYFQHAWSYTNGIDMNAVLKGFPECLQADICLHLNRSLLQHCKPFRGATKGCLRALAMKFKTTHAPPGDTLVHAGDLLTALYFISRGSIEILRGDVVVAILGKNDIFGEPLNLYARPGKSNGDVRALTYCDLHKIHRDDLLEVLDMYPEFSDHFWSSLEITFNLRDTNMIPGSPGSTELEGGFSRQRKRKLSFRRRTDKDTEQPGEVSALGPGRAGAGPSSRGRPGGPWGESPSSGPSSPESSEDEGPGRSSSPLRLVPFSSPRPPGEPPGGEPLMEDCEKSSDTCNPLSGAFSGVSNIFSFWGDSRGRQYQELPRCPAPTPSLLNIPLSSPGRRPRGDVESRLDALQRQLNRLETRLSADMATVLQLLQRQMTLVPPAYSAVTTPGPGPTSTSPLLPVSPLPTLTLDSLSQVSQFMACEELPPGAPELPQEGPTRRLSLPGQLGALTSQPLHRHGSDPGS

Row | Structure (SMILES) | hERG current change (%, negative = inhibition) at 10uM [%]
1 | CC1(C)Cc2c(sc3nc[nH]c(=O)c23)CO1 | 10.9
2 | CC1(C)C2CC[C@]3(C)C(CC=C4[C@@H]5C[C@@](C)(CO)CC[C@]5(C(=O)O)CC[C@]43C)[C@@]2(C)CC[C@@H]1O (stereo partly shown) | 16.8
3 | Cc1ccc(CNC(=O)c2ccc(N3CCC4(CC3)CC(c3cccc(Br)c3)=NO4)c(N)c2)cc1 | 12.4
4 | O=C(OCc1cc2ccccc2[nH]c1=O)C1CCCO1 (stereo not shown) | 14.8
5 | N#Cc1ccc(C(=O)OCC(=O)NC2CCCC2)cc1 | 0.0657
6 | COc1ccc(NC(=O)c2cc(S(=O)(=O)N3CCCCC3)ccc2N2CCCCC2)cn1 | -8.6
7 | COc1ccc(C(=O)Oc2ccc(/C=N/NC(=O)Cc3ccc([N+](=O)[O-])cc3)cc2)cc1 | 5.4
8 | COc1ccc(-c2cc(-c3c(O)c(OC)c4occc4c3OC)[nH]n2)cc1OC | -2.3
9 | COc1ccccc1NC(=O)NCCN1C(=O)C2C3C=CC(C3)C2C1=O (stereo not shown) | 3.52
10 | COc1ccc(OC)c(CCNC(=O)CCn2ccc3cc(S(=O)(=O)N4CCCC4)ccc32)c1 | -28.7
11 | Cc1ccc2nc(N(CCN(C)C)C(=O)c3ccc4c(c3)OCCO4)sc2c1.Cl | -44.6
12 | CCCCCCCCC(=O)N1CCN(c2cc3c(cc2F)c(=O)c(C(=O)O)cn3CC)CC1 | -34.5
13 | CN1CCN(C(=O)c2cccc(S(=O)(=O)N3CCCCC3)c2)CC1 | -7.44
14 | COc1cc2c(cc1OC)CN(CC(=O)NC(=O)NC1CCCCC1)CC2 | 3.28
15 | O=C(CSC1=NC(=O)C(Cc2ccccc2)C(=O)N1)Nc1ncc(Br)cc1Br (stereo not shown) | 12.6
16 | COc1ccccc1C(CNC(=O)c1cccc(S(=O)(=O)Nc2ccc(C)cc2)c1)N(C)C (stereo not shown) | -8.39
17 | Cc1ccnc(SCC(N)=O)n1 | 4.29
18 | O=C(CN(c1cc(Cl)ccc1Cl)S(=O)(=O)c1ccccc1)N1CCOCC1 | -21.5
19 | Cc1cc(C(=O)N2CCC3(CC2)OCCO3)cs1 | 3.66
20 | COc1ccccc1NC(=O)c1cccc2c(Br)cccc12 | 6.03
21 | CC(=O)Nc1ccc(CN2CCN(CCc3ccccc3)C(CCO)C2)cc1 (stereo not shown) | -51.8
22 | Cc1ccc(C(=O)Nc2ccc(S(=O)(=O)N3CCc4ccccc43)cc2)o1 | -1.01

Row | Structure (SMILES) | hERG current change (%, negative = inhibition) at 10uM [%]
23 | O=C(COc1nsnc1N1CCOCC1)Nc1ccc(Br)cc1 | -2.61
24 | CCC1(C)Cc2c(sc3nnn(CC(=O)Nc4ccc(C)cc4)c(=O)c23)CO1 (stereo not shown) | 10.1
25 | COC(=O)C1=C(C)N(CCC2=CCCCC2)C(=O)C1 | 1.46
26 | CCN1CCC(NC(=O)Nc2ccccc2C(=O)OC)CC1 | 4.98
27 | Cc1nn(Cc2ccccc2)c(Cl)c1C(=O)OCC(=O)NC(=O)NC12CC3CC(CC(C3)C1)C2 | 11.5
28 | C/C(=C\c1cccc(Cl)c1)C(=O)c1c(C)cc(C)[nH]c1=O | -4.91
29 | CCCCCCC(=O)Nc1nc(C)c(-c2csc(Nc3ccccc3OC)n2)s1 | 6.89
30 | CCn1c(C)nc2cc(OC)ccc21 | 5.93
31 | COc1cc(NC2c3ccccc3C(=O)N2c2cc(C)ccn2)cc(OC)c1OC (stereo not shown) | 6.98
32 | Cn1c(CC(=O)Nc2ccccc2)nnc1SCC(=O)c1ccccc1 | 4.96
33 | COc1ccccc1C(=O)Nc1nnc(S(=O)(=O)N2CCCCC2)s1 | 12.8
34 | CN(CC(=O)Nc1ccc(Cl)c(Cl)c1)C(=O)C1CCCC1 | -11.6
35 | Cl.N=c1n(CCO)c2ccccc2n1Cc1ccc(Cl)cc1 | -40.1
36 | O=C(Nc1cc(Cl)cc(Cl)c1)C1CC(=O)N(C2CCCC2)C1 (stereo not shown) | -16.5
37 | O=P(NS(=O)(=O)c1ccc(Cl)cc1)(Oc1ccccc1)Oc1ccccc1 | -6.11
38 | CC(=O)Nc1ccc(-n2c(C)nc(=O)c(-c3ccccc3)c2C)cc1 | 13.7
39 | CCOC(=O)c1ccc(OCCOc2ccccc2C)cc1 | 24
40 | COc1ccc(NC(=O)c2cc(-c3ccncc3)nc3ccc(Br)cc23)cc1OC | -0.371
41 | CCN(CC)S(=O)(=O)c1cc(NC(=O)c2n[nH]c(=O)c3ccccc23)ccc1C | 18.7
42 | CCc1ccc(Nc2nnc(SCC(=O)N(C)C3CCS(=O)(=O)C3)s2)cc1 (stereo not shown) | -15.3
43 | NS(=O)(=O)c1ccc(NC(=O)c2ccc3c(c2)OCO3)cc1 | 11.3
44 | CCCN1CNC(=S)N(c2cccc(C)c2)C1 | 17

Row | Structure (SMILES) | hERG current change (%, negative = inhibition) at 10uM [%]
45 | Cc1oc(-c2ccoc2)nc1CN(Cc1ccccc1)CC1CC1 | -1.36
46 | Cc1ccc2c(Cl)c(C)c(N3CCCCC3)nc2n1 | -10.7
47 | N#Cc1cccc(NC(=O)CNc2cccc(S(=O)(=O)N3CCCCC3)c2)c1 | -32
48 | CCOP(=S)(OCC)SCCSCC | 4.35
49 | CC(=O)C(CC(=O)N1CCCc2ccccc21)C(=O)Nc1ccc(F)cc1 (stereo not shown) | -8.85
50 | CC(C)(C)c1ccc(C(=O)C=[N+]=[N-])cc1 | -23.7
51 | O=C(Nc1ccc(CN2CCCCC2)cc1)Nc1ccccc1Cl | -59
52 | O=S(=O)(c1ccc(Br)s1)N1CCNCC1 | -4.05
53 | CC(C)[C@H](NC(=O)c1ccco1)C(=O)OCC(=O)N1CC(=O)Nc2ccccc21 | 13.3
54 | CC1CN(C(=O)c2ccccc2)c2ccccc2NC1=O (stereo not shown) | 18.5
55 | O=C(COC(=O)c1ccccc1F)NNC(=O)c1ccccc1 | 8.17
56 | CCC1Nc2ncnc(N3CCN(c4ccccc4)CC3)c2N(Cc2ccc(Cl)cc2)C1=O.O=C(O)C(F)(F)F (stereo not shown) | -17.4
57 | Cc1cc(C)n(-c2ccc(NC(=O)C3CCCCN3C(=O)c3cc(C)oc3C)cc2)n1 (stereo not shown) | -30.1
58 | Cc1cccc(N2CCN(C(=O)CCC(=O)N3CCOc4ccc(Cl)cc43)CC2C)c1 (stereo not shown) | -21
59 | O=C(Nc1ccccc1)c1cccc(C(=O)Nc2ccccc2)n1 | 24.8
60 | Cc1cc(C)n(C(=O)c2ccc([N+](=O)[O-])cc2[N+](=O)[O-])n1 | -10.9
61 | O=C(CCc1nc(-c2ccc(Cl)cc2)no1)NCC1CCCO1 (stereo not shown) | 20.4
62 | CCCCOCP(=O)(CCCC)COCCCC | -2.52
63 | O=S(=O)(Nc1nc(SCc2ccc(Cl)cc2)n[nH]1)c1ccccc1 | 6.68
64 | CCn1c(O)c(/C=N/N=C/c2ccc(OC)cc2)c2cc(C3=NNC(=O)CC3)ccc21 | 0.571
65 | Cc1cc2oc(=O)cc(CN3CCc4ccccc43)c2cc1Cl | 16.4
66 | C=CCSc1cc(C)nc2c(-c3ccccc3)c(C)nn12 | 1.38

Row | Structure (SMILES) | hERG current change (%, negative = inhibition) at 10uM [%]
67 | COc1ccc(C(=O)NC(=S)Nc2ccc(N3CCN(C(C)=O)CC3)cc2)cc1[N+](=O)[O-] | -2.14
68 | COc1ccc(CNc2oc(COc3ccc(Cl)cc3)nc2C#N)cc1 | 2.47
69 | COc1cc(NC(=O)c2ccc(Br)o2)ccc1NC(=O)c1ccccc1Cl | -22.4
70 | Cc1ccc(NC(=O)CSc2nc3ccc(Nc4nc(N5CCOCC5)nc(N5CCOCC5)n4)cc3s2)cc1 | 13.7
71 | CCOC(=O)Cc1c(C)c2c(O)cc(O)cc2oc1=O | -18.6
72 | CCCCCCn1c(O)c(C=NC2CCN(Cc3ccccc3)CC2)c(=O)[nH]c1=O | -65.7
73 | CCOC(=O)C(NC(C)=O)(Nc1ccc(S(N)(=O)=O)cc1)C(F)(F)F (stereo not shown) | 17.6
74 | CCOC(=O)N1CCN(c2nc(N(c3ccccc3)c3ccccc3)nc(-n3ccnc3)n2)CC1 | 7.08
75 | COc1ccccc1NC(=O)CCNC(=O)Cn1ccc2ccccc2c1=O | 3.55
76 | Cc1ccc(N2CN(Cc3cccnc3)CNC2=S)c(C)c1 | -4.84
77 | CCOc1ccc(N2C(=O)S/C(=C\c3cccn3C)C2=O)cc1 | 8.69
78 | O=[N+]([O-])c1ccc(F)cc1OCc1cccc(S(=O)(=O)N2CCOCC2)c1 | -31.9
79 | O=C(COC(=O)c1cccc(Cl)c1)NC1CCS(=O)(=O)C1 (stereo not shown) | -8.73
80 | Cc1cc(O)ccc1Nc1nc(-c2cccnc2)cs1 | 4.4
81 | COc1ccc(-c2nnc(N)s2)cc1 | 7.92
82 | COc1cc([N+](=O)[O-])ccc1N=Nc1c(N)[nH]n(-c2ccccc2)c1=O | 20.7
83 | NC1=C(c2ccccc2)C(=O)NC1=O | 18.1
84 | Cc1cccc(NC(=O)CSCc2cc(=O)n3nc(C4CC4)sc3n2)c1 | 2.26
85 | CC1CCCCC1N1CN=C(Nc2nc3ccccc3s2)NC1 (stereo not shown) | -4.41
86 | COc1ccc(C2CC(c3ccc(Cl)cc3)n3nc(N)nc3N2)cc1 (stereo not shown) | -22.3
87 | CN(C)c1ccc(/C=C2\CC3C4CC=C5CC(O)CCC5(C)C4CCC3(C)C2=O)cc1 (stereo not shown) | 3.55
88 | O=C(Cc1ccccc1)N1CCN(Cc2cccc(Cl)c2)CC1.O=C(O)C(=O)O | -1.51
